Experimental findings from the supplement of paper PMC12230231 are described below.

± gives the standard deviation of the averaged measurements. Restriction of a single-cycle SIVsab GFP reporter by TRIM5α v1-loop variants in CRFK cells. Human variants: read share among cells still uninfected after two challenges over input, higher = gained restriction. Rhesus variants: share among infected cells over input, higher = lost restriction. Reporter dose not given per row. No active / inactive call per row; the paper calls a change when both replicates lie above its controls (mean + 2 SD of stop or wild-type variants, or the top frameshift score). Residues outside the varied loop are taken from Swiss-Prot. The paper reads the human single-substitution scores as noise; they and the rhesus combinations repeat poorly (rank correlation 0.3 to 0.4), indel scores repeat only for the top variants, rhesus substitutions well (0.9).

The first series has as its system SIVsab (simian immunodeficiency virus of sabaeus monkeys), single-cycle GFP reporter, in CRFK cells. Kind of series: enrichment among uninfected cells over input (fold); higher = stronger restriction. The note with it: library: human / rhesus combinations. The method, then:
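Pools of CRFK cells expressing variants of the TRIM5α v1 loop were challenged with the single-cycle reporter, sorted by GFP and sequenced; mean of two replicates.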
As to “MASGILVNVKEEVTCPICLELLTQPLSLDCGHSFCQACLTANHKKSMLDKGESSCPVCRISYQPENIRPNRHVANIVEKLREVKLSPEGQKVDHCARHGEKLLLFCQEDGKVICWLCERSQEHRGHHTFLTEEVAREYQVKLQAALEMLRQKQQEAEELEADIREEKASWKTQIQYDKTNVLADFEQLRDILDWEESNELQNLEKEEEDILKSLTNSETEMVQQTQSLRELISDLEHRLQGSVMELLQGVDGVIKRTENVTLKKPETFPKNQRRVFRAPDLKGMLEVFRELTDVRRYWVDVTVAPNNISCAVISEDKRQVSSPKPQIIYGARGTLFPSFVNFNYCTGILGSQSITSGKHYWEVDVSKKTAWILGVCAGFQPDAMCNIEKNENYQPKYGYWVIGLEEGVKCSAFQDSSFHTPSVPFIVPLSVIICPDRVGVFLDYEACTVSFFNITNHGFLIYKFSHCSFSQPVFPYLNPRKCGVPMTLCSPSS [human TRIM5α, 330-340 = GARGTLFPSFV]”, the enrichment stood at 0.00239 ± 0.00085. Still for that read-out and setting: the figure for “MASGILVNVKEEVTCPICLELLTQPLSLDCGHSFCQACLTANHKKSMLDKGESSCPVCRISYQPENIRPNRHVANIVEKLREVKLSPEGQKVDHCARHGEKLLLFCQEDGKVICWLCERSQEHRGHHTFLTEEVAREYQVKLQAALEMLRQKQQEAEELEADIREEKASWKTQIQYDKTNVLADFEQLRDILDWEESNELQNLEKEEEDILKSLTNSETEMVQQTQSLRELISDLEHRLQGSVMELLQGVDGVIKRTENVTLKKPETFPKNQRRVFRAPDLKGMLEVFRELTDVRRYWVDVTVAPNNISCAVISEDKRQVSSPKPQIIYGARGTLFPSLTNFNYCTGILGSQSITSGKHYWEVDVSKKTAWILGVCAGFQPDAMCNIEKNENYQPKYGYWVIGLEEGVKCSAFQDSSFHTPSVPFIVPLSVIICPDRVGVFLDYEACTVSFFNITNHGFLIYKFSHCSFSQPVFPYLNPRKCGVPMTLCSPSS [human TRIM5α, 330-340 = GARGTLFPSLT]” is 0.00365 ± 0.003; for “MASGILVNVKEEVTCPICLELLTQPLSLDCGHSFCQACLTANHKKSMLDKGESSCPVCRISYQPENIRPNRHVANIVEKLREVKLSPEGQKVDHCARHGEKLLLFCQEDGKVICWLCERSQEHRGHHTFLTEEVAREYQVKLQAALEMLRQKQQEAEELEADIREEKASWKTQIQYDKTNVLADFEQLRDILDWEESNELQNLEKEEEDILKSLTNSETEMVQQTQSLRELISDLEHRLQGSVMELLQGVDGVIKRTENVTLKKPETFPKNQRRVFRAPDLKGMLEVFRELTDVRRYWVDVTVAPNNISCAVISEDKRQVSSPKPQIIYGARGTLFPSLVNFNYCTGILGSQSITSGKHYWEVDVSKKTAWILGVCAGFQPDAMCNIEKNENYQPKYGYWVIGLEEGVKCSAFQDSSFHTPSVPFIVPLSVIICPDRVGVFLDYEACTVSFFNITNHGFLIYKFSHCSFSQPVFPYLNPRKCGVPMTLCSPSS [human TRIM5α, 330-340 = GARGTLFPSLV]” it is 0.328 ± 0.46; for “MASGILVNVKEEVTCPICLELLTQPLSLDCGHSFCQACLTANHKKSMLDKGESSCPVCRISYQPENIRPNRHVANIVEKLREVKLSPEGQKVDHCARHGEKLLLFCQEDGKVICWLCERSQEHRGHHTFLTEEVAREYQVKLQAALEMLRQKQQEAEELEADIREEKASWKTQIQYDKTNVLADFEQLRDILDWEESNELQNLEKEEEDILKSLTNSETEMVQQTQSLRELISDLEHRLQGSVMELLQGVDGVIKRTENVTLKKPETFPKNQRRVFRAPDLKGMLEVFRELTDVRRYWVDVTVAPNNISCAVISEDKRQVSSPKPQIIYGARGTLFPTFVNFNYCTGILGSQSITSGKHYWEVDVSKKTAWILGVCAGFQPDAMCNIEKNENYQPKYGYWVIGLEEGVKCSAFQDSSFHTPSVPFIVPLSVIICPDRVGVFLDYEACTVSFFNITNHGFLIYKFSHCSFSQPVFPYLNPRKCGVPMTLCSPSS [human TRIM5α, 330-340 = GARGTLFPTFV]” it is 0.00658 ± 0.0057. Same read-out and setting: the same measure for “MASGILVNVKEEVTCPICLELLTQPLSLDCGHSFCQACLTANHKKSMLDKGESSCPVCRISYQPENIRPNRHVANIVEKLREVKLSPEGQKVDHCARHGEKLLLFCQEDGKVICWLCERSQEHRGHHTFLTEEVAREYQVKLQAALEMLRQKQQEAEELEADIREEKASWKTQIQYDKTNVLADFEQLRDILDWEESNELQNLEKEEEDILKSLTNSETEMVQQTQSLRELISDLEHRLQGSVMELLQGVDGVIKRTENVTLKKPETFPKNQRRVFRAPDLKGMLEVFRELTDVRRYWVDVTVAPNNISCAVISEDKRQVSSPKPQIIYGARGTLFPTLTNFNYCTGILGSQSITSGKHYWEVDVSKKTAWILGVCAGFQPDAMCNIEKNENYQPKYGYWVIGLEEGVKCSAFQDSSFHTPSVPFIVPLSVIICPDRVGVFLDYEACTVSFFNITNHGFLIYKFSHCSFSQPVFPYLNPRKCGVPMTLCSPSS [human TRIM5α, 330-340 = GARGTLFPTLT]”: 0.00571 ± 0.004; for “MASGILVNVKEEVTCPICLELLTQPLSLDCGHSFCQACLTANHKKSMLDKGESSCPVCRISYQPENIRPNRHVANIVEKLREVKLSPEGQKVDHCARHGEKLLLFCQEDGKVICWLCERSQEHRGHHTFLTEEVAREYQVKLQAALEMLRQKQQEAEELEADIREEKASWKTQIQYDKTNVLADFEQLRDILDWEESNELQNLEKEEEDILKSLTNSETEMVQQTQSLRELISDLEHRLQGSVMELLQGVDGVIKRTENVTLKKPETFPKNQRRVFRAPDLKGMLEVFRELTDVRRYWVDVTVAPNNISCAVISEDKRQVSSPKPQIIYGARGTLFPTLVNFNYCTGILGSQSITSGKHYWEVDVSKKTAWILGVCAGFQPDAMCNIEKNENYQPKYGYWVIGLEEGVKCSAFQDSSFHTPSVPFIVPLSVIICPDRVGVFLDYEACTVSFFNITNHGFLIYKFSHCSFSQPVFPYLNPRKCGVPMTLCSPSS [human TRIM5α, 330-340 = GARGTLFPTLV]”: 0.00426 ± 0.0015; for “MASGILVNVKEEVTCPICLELLTQPLSLDCGHSFCQACLTANHKKSMLDKGESSCPVCRISYQPENIRPNRHVANIVEKLREVKLSPEGQKVDHCARHGEKLLLFCQEDGKVICWLCERSQEHRGHHTFLTEEVAREYQVKLQAALEMLRQKQQEAEELEADIREEKASWKTQIQYDKTNVLADFEQLRDILDWEESNELQNLEKEEEDILKSLTNSETEMVQQTQSLRELISDLEHRLQGSVMELLQGVDGVIKRTENVTLKKPETFPKNQRRVFRAPDLKGMLEVFRELTDVRRYWVDVTVAPNNISCAVISEDKRQVSSPKPQIIYGARGTLFTFPSFTNFNYCTGILGSQSITSGKHYWEVDVSKKTAWILGVCAGFQPDAMCNIEKNENYQPKYGYWVIGLEEGVKCSAFQDSSFHTPSVPFIVPLSVIICPDRVGVFLDYEACTVSFFNITNHGFLIYKFSHCSFSQPVFPYLNPRKCGVPMTLCSPSS [human TRIM5α, 330-340 = GARGTLFTFPSFT]”: 0.4 ± 0.089. Regarding “MASGILVNVKEEVTCPICLELLTQPLSLDCGHSFCQACLTANHKKSMLDKGESSCPVCRISYQPENIRPNRHVANIVEKLREVKLSPEGQKVDHCARHGEKLLLFCQEDGKVICWLCERSQEHRGHHTFLTEEVAREYQVKLQAALEMLRQKQQEAEELEADIREEKASWKTQIQYDKTNVLADFEQLRDILDWEESNELQNLEKEEEDILKSLTNSETEMVQQTQSLRELISDLEHRLQGSVMELLQGVDGVIKRTENVTLKKPETFPKNQRRVFRAPDLKGMLEVFRELTDVRRYWVDVTVAPNNISCAVISEDKRQVSSPKPQIIYGARGTLFTFPSFVNFNYCTGILGSQSITSGKHYWEVDVSKKTAWILGVCAGFQPDAMCNIEKNENYQPKYGYWVIGLEEGVKCSAFQDSSFHTPSVPFIVPLSVIICPDRVGVFLDYEACTVSFFNITNHGFLIYKFSHCSFSQPVFPYLNPRKCGVPMTLCSPSS [human TRIM5α, 330-340 = GARGTLFTFPSFV]”, the enrichment turned out to be 0.303 ± 0.18. Same read-out and setting: the same measure for “MASGILVNVKEEVTCPICLELLTQPLSLDCGHSFCQACLTANHKKSMLDKGESSCPVCRISYQPENIRPNRHVANIVEKLREVKLSPEGQKVDHCARHGEKLLLFCQEDGKVICWLCERSQEHRGHHTFLTEEVAREYQVKLQAALEMLRQKQQEAEELEADIREEKASWKTQIQYDKTNVLADFEQLRDILDWEESNELQNLEKEEEDILKSLTNSETEMVQQTQSLRELISDLEHRLQGSVMELLQGVDGVIKRTENVTLKKPETFPKNQRRVFRAPDLKGMLEVFRELTDVRRYWVDVTVAPNNISCAVISEDKRQVSSPKPQIIYGARGTLFTFPSLTNFNYCTGILGSQSITSGKHYWEVDVSKKTAWILGVCAGFQPDAMCNIEKNENYQPKYGYWVIGLEEGVKCSAFQDSSFHTPSVPFIVPLSVIICPDRVGVFLDYEACTVSFFNITNHGFLIYKFSHCSFSQPVFPYLNPRKCGVPMTLCSPSS [human TRIM5α, 330-340 = GARGTLFTFPSLT]”: 0.303 ± 0.14.

The same series, now with this note: library: insertions and deletions.
Consider “MASGILVNVKEEVTCPICLELLTQPLSLDCGHSFCQACLTANHKKSMLDKGESSCPVCRISYQPENIRPNRHVANIVEKLREVKLSPEGQKVDHCARHGEKLLLFCQEDGKVICWLCERSQEHRGHHTFLTEEVAREYQVKLQAALEMLRQKQQEAEELEADIREEKASWKTQIQYDKTNVLADFEQLRDILDWEESNELQNLEKEEEDILKSLTNSETEMVQQTQSLRELISDLEHRLQGSVMELLQGVDGVIKRTENVTLKKPETFPKNQRRVFRAPDLKGMLEVFRELTDVRRYWVDVTVAPNNISCAVISEDKRQVSSPKPQIIYGARGTGTRYQTFVNFNYCTGILGSQSITSGKHYWEVDVSKKTAWILGVCAGFQPDAMCNIEKNENYQPKYGYWVIGLEEGVKCSAFQDSSFHTPSVPFIVPLSVIICPDRVGVFLDYEACTVSFFNITNHGFLIYKFSHCSFSQPVFPYLNPRKCGVPMTLCSPSS [human TRIM5α, 2-codon duplication at 333]”, for which the enrichment was 0.618 ± 0.38.

For “MASGILVNVKEEVTCPICLELLTQPLSLDCGHSFCQACLTANHKKSMLDKGESSCPVCRISYQPENIRPNRHVANIVEKLREVKLSPEGQKVDHCARHGEKLLLFCQEDGKVICWLCERSQEHRGHHTFLTEEVAREYQVKLQAALEMLRQKQQEAEELEADIREEKASWKTQIQYDKTNVLADFEQLRDILDWEESNELQNLEKEEEDILKSLTNSETEMVQQTQSLRELISDLEHRLQGSVMELLQGVDGVIKRTENVTLKKPETFPKNQRRVFRAPDLKGMLEVFRELTDVRRYWVDVTVAPNNISCAVISEDKRQVSSPKPQIIYGARGTIIYGARGTRYQTFVNFNYCTGILGSQSITSGKHYWEVDVSKKTAWILGVCAGFQPDAMCNIEKNENYQPKYGYWVIGLEEGVKCSAFQDSSFHTPSVPFIVPLSVIICPDRVGVFLDYEACTVSFFNITNHGFLIYKFSHCSFSQPVFPYLNPRKCGVPMTLCSPSS [human TRIM5α, 8-codon duplication at 327]”, the enrichment came out at 0.496 ± 0.29. On the same count and under the same terms, the same measure for “MASGILVNVKEEVTCPICLELLTQPLSLDCGHSFCQACLTANHKKSMLDKGESSCPVCRISYQPENIRPNRHVANIVEKLREVKLSPEGQKVDHCARHGEKLLLFCQEDGKVICWLCERSQEHRGHHTFLTEEVAREYQVKLQAALEMLRQKQQEAEELEADIREEKASWKTQIQYDKTNVLADFEQLRDILDWEESNELQNLEKEEEDILKSLTNSETEMVQQTQSLRELISDLEHRLQGSVMELLQGVDGVIKRTENVTLKKPETFPKNQRRVFRAPDLKGMLEVFRELTDVRRYWVDVTVAPNNISCAVISEDKRQVSSPKPQIIYGARGTIYGARGTRYQTFVNFNYCTGILGSQSITSGKHYWEVDVSKKTAWILGVCAGFQPDAMCNIEKNENYQPKYGYWVIGLEEGVKCSAFQDSSFHTPSVPFIVPLSVIICPDRVGVFLDYEACTVSFFNITNHGFLIYKFSHCSFSQPVFPYLNPRKCGVPMTLCSPSS [human TRIM5α, 7-codon duplication at 328]”: 0.423 ± 0.0064.
